First the molecules themselves.
T1: UNK ZnF1-6 (called full-length) (human, UniProt Q9C0B0 30-357)
T1 sequence: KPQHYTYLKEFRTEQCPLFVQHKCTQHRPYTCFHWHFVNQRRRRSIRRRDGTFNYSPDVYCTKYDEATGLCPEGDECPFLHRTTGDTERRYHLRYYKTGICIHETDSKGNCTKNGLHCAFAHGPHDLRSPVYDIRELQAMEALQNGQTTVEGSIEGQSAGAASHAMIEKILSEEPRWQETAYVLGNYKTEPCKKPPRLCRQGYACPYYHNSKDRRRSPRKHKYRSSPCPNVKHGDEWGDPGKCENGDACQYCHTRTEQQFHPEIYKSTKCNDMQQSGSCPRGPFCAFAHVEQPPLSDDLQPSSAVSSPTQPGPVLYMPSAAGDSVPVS

B1: chr22:41117408:41117517:+|CDS|ENSG00000100393|unk|FALSE|unique (ssRNA)
RNA: GGGAGUUCUACAGUCCGACGAUCCCAGGUCAAGUCAUGGCCAGCCAGGCCCAACAGAGCAGUCCUGGAUUAGGUUUGAUAAAUAGCAUGGUCAAAAGCCCAAUGACACAGGCAGGCUUGACUUCUCCCAACAUGGGGAUGGGCCAACAGAGGAUUGAGCAUCA
B2: chr8:123014585:123014686:-|3pUTR|ENSG00000136986|msi1|FALSE|unique (ssRNA)
RNA: GGGAGUUCUACAGUCCGACGAUCGCAGCUAACAUGGGUUAGGUUUAAACCAUGGGGGAUGCAACCCCUUUGCGUUUCAUAUGUAGGCCUACUGGCUUUGUGUAGCUGGAGUAGUUGGGUUGCUUUGUGUUAGGAGGAUCCAGACAACAGAGGAUUGAGCAUCA
B3: ENSG00000070961:be:win_1151|CDS|ENSG00000070961|bound_else_gene|NA|bound_elsewhere_windowed (ssRNA)
RNA: GGGAGUUCUACAGUCCGACGAUCCAGUUAUCAUUCUAGUAUUAUAUUUUGUCAUUGACACCUUCUGGGUUCAGAAAAGACCAUGGCUUGCUGAGUGCACACCAAUUUAUAUACAAUACUUUGUGAAGUUCUUCAUUAUUGGAGCAACAGAGGAUUGAGCAUCA
B4: ENSG00000107863:be:win_5201|CDS|ENSG00000107863|bound_else_gene|NA|bound_elsewhere_windowed (ssRNA)
RNA: GGGAGUUCUACAGUCCGACGAUCUUGAUGUUAUGAAAAAAGGAAAGUCAACUGGGAGUUUACUGACACCCACCAGAGGCGAAUCCGAAAAACAGGAACCCACAUGGAAAACGAAAAUAGCAGAUCGGUUAAAACUGAGACCCACAACAGAGGAUUGAGCAUCA
B5: chr12:42456824:42456925:-|3pUTR|ENSG00000139174|unk|total|mutant (ssRNA)
RNA: GGGAGUUCUACAGUCCGACGAUCAUGAGCCACUGCGUCUGGCAAUAAUGUAACUUUGAAGCUUAAAAAUUAAUCCCAGUUUGCCGCAAUAACAGAAGACUAUCUACAACGGAAGAAAGAAGCAACUGCCUUACAGUUCUGUAACAACAGAGGAUUGAGCAUCA
B6: chr1:61455842:61455953:+|3pUTR|ENSG00000162599|unk|total|mutant (ssRNA)
RNA: GGGAGUUCUACAGUCCGACGAUCUUUUCUGUAACAUAUUGGAAAAAGAAAAUGCAGUUAUAUUCCUUUUUUAUUUGUUCCUUCCGUUUGUUUUGGUUCAGCAGUCAGCAGUUAAGUAUAUAACAUGGCCCGCAAGGACAAUGACAACAGAGGAUUGAGCAUCA
B7: chr8:22006364:22006465:+|3pUTR|ENSG00000130227|msi1|total|mutant (ssRNA)
RNA: GGGAGUUCUACAGUCCGACGAUCUGUUGCUGCCCGUUGUACACAUCUCCCGUUCAGCUCUUGCCCACGGGACACUCAUCAAUCCGGUUUUAUUUUUAUUUCUUUCCUCUACCCCCAGAAACAAGCCUGUUAAUUUUUUUUCCUCAACAGAGGAUUGAGCAUCA
B8: ENSG00000198589:be:win_8001|CDS|ENSG00000198589|bound_else_gene|NA|bound_elsewhere_windowed (ssRNA)
RNA: GGGAGUUCUACAGUCCGACGAUCUGGAGAUAACCCAGGCAGUGAGACUGCUGCUCCUCGGGCCAUUUUGACCGGCCAUGACUAUGAGGUCACAUGUGCUGCGGUGUGUGCGGAGCUAGGCCUGGUGUUGAGUGGUUCACAAGACAACAGAGGAUUGAGCAUCA
B9: chr16:67638976:67639077:+|3pUTR|ENSG00000102974|unk|FALSE|unique (ssRNA)
RNA: GGGAGUUCUACAGUCCGACGAUCAAACACUUUUUUCUUCUGUGUAUUGCUUUUAAGAGAGCCAUCAGUUAGCUAUCAGACUCUAGGUUGAUGCAUUUUGUACUUAGCUGUACUGUGUGAUAUUUUUCAUUAUUUUAGGACGCCCAACAGAGGAUUGAGCAUCA
B10: chrX:11121696:11121802:+|CDS|ENSG00000004961|unk|total|mutant (ssRNA)
RNA: GGGAGUUCUACAGUCCGACGAUCUGAUGGUGGUGAAGUCAACAAGGACUACCAGUUCACCAUCCUGGACGUCCGUCCUGCCUCCGAUUCACUUUCGGCAGUAUGGGACAGAAUGAAAGUCGCUUGGUGGCGUUGGACCUCGUACAACAGAGGAUUGAGCAUCA
B11: chr12:108645191:108645284:-|3pUTR|ENSG00000110880|msi1_unk|FALSE|overlapping (ssRNA)
RNA: GGGAGUUCUACAGUCCGACGAUCUCUUUUUUUUUUUUUUUUUUUAAGCCAUGACAUCCCAGAAGAGGACAGUGAAUUACUCCUAGGUCGGCUCUUAUAGAGUGGCCAUAGUGUUCUGUCAAAACACUUGCUUCCAUUUUCAGACAACAGAGGAUUGAGCAUCA
B12: chr8:38210141:38210254:+|CDS|ENSG00000156735|unk|total|mutant (ssRNA)
RNA: GGGAGUUCUACAGUCCGACGAUCGCUGAGCCUCAGCUGUAUGGUAAUGCCACCAGUGACCAUCCCAACAAUCAAGAUCAAAGCCGCAGUCUUCCUGAAGAAUGUGUACCUUCAGAUGAAAGUACUCCUCCGAGUAUUAAAAAACAACAGAGGAUUGAGCAUCA
B13: chr2:231108229:231108516:-|three_prime_utr|ENSG00000135914|control|control|control (ssRNA)
RNA: GGGAGUUCUACAGUCCGACGAUCAAGAAUAUCUAAUUUUCCUAAUUUGGACAAGAUUAUUCCAUGAGGAAAAUAAUUUUAUAUAGCUACAAAUGAAAACAAUCCAGCACUCUGGUUAAAUUUUAAGGUAUUCGAAUGAAAUAACAACAGAGGAUUGAGCAUCA
B14: chr11:6395124:6395533:-|three_prime_utr|ENSG00000166313|control|control|control (ssRNA)
RNA: GGGAGUUCUACAGUCCGACGAUCCCCUCCACCUGCUUGUGUUGGGCCCCAGGGAACUAAAGGGUGUGGGUCAGGGAGGGGUCUAGAGGCUAUUCCUAGGCCUCAGGCCUCCCAAAUAUGCCCCUCCCCAGUAGCUACGGUUCCCAACAGAGGAUUGAGCAUCA
B15: chr7:101137467:101137738:+|3pUTR|ENSG00000106366|msi1|FALSE|unique (ssRNA)
RNA: GGGAGUUCUACAGUCCGACGAUCGUUAAAAGAUGGUAAACCAGAUCUGUCUCCAAGACCUUGGCCUCUCCUUGGAGGACCUUUAGGUCAAACUCCCUAGUCUCCACCUGAGACCCUGGGAGAGAAGUUUGAAGCACAACUCCCCAACAGAGGAUUGAGCAUCA
B16: ENSG00000198589:be:win_7501|CDS|ENSG00000198589|bound_else_gene|NA|bound_elsewhere_windowed (ssRNA)
RNA: GGGAGUUCUACAGUCCGACGAUCCUCAAGUUUCCCUCCAACUCCCCUGUUACUCACGUGGCAGCCAACACCCAGCCUGGUUUGGCAACUCCCGCUGUGAUCACAGUCACUGCUAACAGGUUAUUUGCGGUGAACAAAUGGCACCAACAGAGGAUUGAGCAUCA
B17: chr16:1487315:1487970:-|CDS|ENSG00000251692|control|control|control (ssRNA)
RNA: GGGAGUUCUACAGUCCGACGAUCGGGGGAGCUGGCGCAGCUCAAGGCCUGGGUGAGGAAGCUGCAGCGCCGAGGCCGGAAAGUAGACACGCGGCUGCGGGCCUUGGACCUCACCCUGGGCGAGAGGAGCCAGCAGCGGGCCCGCAACAGAGGAUUGAGCAUCA
B18: chr20:13714314:13714426:-|3pUTR|ENSG00000089048|unk|FALSE|unique (ssRNA)
RNA: GGGAGUUCUACAGUCCGACGAUCUUUUUCUAGCCAUAAAGGAUGGAAGUCAAGAACUUUUUGUUGUUUAGUCAUGUUAAGUAUAGUUUAUGAAAUUAACUUGUAAAUAAAAGUGUAAAAUAUUUUCAUUAUUUUGUAUAGCACCAACAGAGGAUUGAGCAUCA
B19: chr10:62094764:62094865:+|3pUTR|ENSG00000150347|msi1|FALSE|unique (ssRNA)
RNA: GGGAGUUCUACAGUCCGACGAUCGAUGAACUCCCCAACCCACUGUGCCCCUCCCGCAACACUACCAGUAGACUUUAGAACCAUAGUUAACUAAGUCUUUUACCUCUGAGAUACUUAAUUCUGGGAAAAUUGGUGACAAUUUUCCAACAGAGGAUUGAGCAUCA
B20: chr16:58551611:58551719:-|CDS|ENSG00000125107|unk|total|mutant (ssRNA)
RNA: GGGAGUUCUACAGUCCGACGAUCCUGGCUCAGGCCCAGGCUCAGGCCCAGGUUCCAGCAAAAGCUCCUCUUGCUGGUCAAGUCCGCACUAUGGUAACCACCUCAACAACUACCACUGUUGCUAAAACGGUUACGGUCACCAGGCAACAGAGGAUUGAGCAUCA
B21: ENSG00000198589:be:win_7251|CDS|ENSG00000198589|bound_else_gene|NA|bound_elsewhere_windowed (ssRNA)
RNA: GGGAGUUCUACAGUCCGACGAUCUGGCUAUAAACAGCAAGGACCAGAAGCUGUCCGAGCCCUCAAUGUGUUCUAUUACUUGACCUAUGAAGGAGCUGUCAAUCUGAAUUCAAUAACUGAUCCUGUGUUGAGAGAGGCUGUUGACAACAGAGGAUUGAGCAUCA
B22: chr1:68475836:68475940:-|3pUTR|ENSG00000024526|unk|total|mutant (ssRNA)
RNA: GGGAGUUCUACAGUCCGACGAUCAUGCCCAGGGCCUAACUUACACUAAUUAAAUCUGAAUUUUGGGGAUGUUGUACCGGGAUCCGUAUUUUUUUUAAUCCCGGUGAUUCCAAUAUUCAGCCAACUGUGAGAAUCAAUGGCCUACAACAGAGGAUUGAGCAUCA

The other results are listed elsewhere or left out.

The assay has as its target T1, UNK ZnF1-6 (called full-length). Description: nsRBNS (natural sequence RNA bind-n-seq); RBNS binding buffer (assumed for nsRBNS): 25 mM Tris pH 7.5, 150 mM KCl, 3 mM MgCl2, 0.01% Triton X-100, 500 ug/ml BSA, 20 U/ml SUPERase-In, 4 C; UNK is unkempt and MSI1 is Musashi-1; names of the RNAs are library labels; protein concentration not given here; high values mean tight binding.
The molecule B1 gave a binding signal of 1.14 enrichment R. The molecule B2 gave a binding signal of 0.611 enrichment R. In the case of B3 it was 6.68 enrichment R; in that of B4, 0.518 enrichment R; in that of B5, 0.293 enrichment R. Then B6, with 0.421 enrichment R; and B7, with 2.95 enrichment R; and B8, with 0.695 enrichment R. In the case of B9 it was 2.13 enrichment R; in that of B10, 0.608 enrichment R; in that of B11, 4.79 enrichment R.

In turn, B12 yielded a binding signal of 0.499 enrichment R.

B13 had a binding signal of 1.88 enrichment R. Then B14, with 0.496 enrichment R; and B15, with 0.446 enrichment R. In the case of B16 it was 0.528 enrichment R; in that of B17, 0.727 enrichment R. In the case of B18 it was 62.3 enrichment R. With B19, the binding signal was 3.7 enrichment R. Then B20, with 0.536 enrichment R; and B21, with 0.511 enrichment R; and B22, with 0.698 enrichment R.

These data come from paper PMC12136788.
